Measurements as given in PubChem BioAssay AID488969 (Vanderbilt High Throughput Screening Facility, 2010).
The full ranking holds about 110,000 compounds; the median of “z-score” is about -0.1, and the highest 2% start at about 2. This is one part of the list. Calls of active or inactive are those of the source.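 How the source made its calls: active means z-score in the third read window above 3 or below -3; inactive means the rest.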

Biological target: Metabotropic glutamate receptor 8 (Rattus norvegicus) (UniProt P70579)
Test: mGluR8 Gi/Go-coupled signaling modulation – cell-based, rat, thallium flux, HTS, primary screen (AID 488969)
Settings: HEK293 rat mGluR8, GIRK (G protein-gated inwardly rectifying potassium channel) thallium flux, FluoZin2; at 10 µM; stronger effect = higher value; submaximal glutamate (EC20) added with thallium

Sequence of UniProt P70579 (P70579 whole entry, looked up): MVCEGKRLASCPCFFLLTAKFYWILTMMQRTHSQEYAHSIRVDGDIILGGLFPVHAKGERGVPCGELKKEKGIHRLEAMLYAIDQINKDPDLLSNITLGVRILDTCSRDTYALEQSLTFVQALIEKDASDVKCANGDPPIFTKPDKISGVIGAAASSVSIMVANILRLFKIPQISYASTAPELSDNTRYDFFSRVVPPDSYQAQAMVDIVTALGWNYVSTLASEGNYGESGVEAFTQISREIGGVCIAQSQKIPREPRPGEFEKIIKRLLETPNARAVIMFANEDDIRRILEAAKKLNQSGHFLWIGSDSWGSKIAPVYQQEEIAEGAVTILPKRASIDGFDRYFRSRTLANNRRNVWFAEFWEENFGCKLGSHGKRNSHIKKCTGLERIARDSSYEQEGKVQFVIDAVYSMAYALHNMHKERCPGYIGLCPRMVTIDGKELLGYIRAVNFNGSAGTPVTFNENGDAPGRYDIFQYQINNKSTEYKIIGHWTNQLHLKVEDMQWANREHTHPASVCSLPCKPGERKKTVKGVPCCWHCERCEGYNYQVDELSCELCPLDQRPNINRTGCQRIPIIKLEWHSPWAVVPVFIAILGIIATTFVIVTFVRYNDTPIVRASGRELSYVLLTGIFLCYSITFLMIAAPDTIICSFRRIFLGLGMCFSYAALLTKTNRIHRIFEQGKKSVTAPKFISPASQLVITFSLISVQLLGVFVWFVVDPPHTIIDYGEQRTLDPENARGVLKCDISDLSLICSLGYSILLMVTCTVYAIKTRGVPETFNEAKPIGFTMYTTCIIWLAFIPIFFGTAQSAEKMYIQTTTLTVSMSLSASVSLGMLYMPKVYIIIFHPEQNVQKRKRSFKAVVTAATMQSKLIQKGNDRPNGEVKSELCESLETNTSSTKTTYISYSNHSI

Row | SMILES | z-score
1 | Cn1c(=O)c2cn(Cc3ccc(Cl)cc3)cc2n(C)c1=O | 0.574
2 | O=C(NNC(=O)c1ccc2c(c1)OCO2)NC1CCCCC1 | 0.0026
3 | O=C1CC(N2CCC(O)(c3ccc(Cl)cc3)CC2)C(=O)N1Cc1ccc(N2CCCC2=O)cc1 (centres undefined) | -0.0119
4 | COc1cc(C(C)=O)ccc1OCC(O)CN1CCN(S(=O)(=O)c2ccccc2)CC1 (centres undefined) | 0.328
5 | CC1=NC(C(F)(F)F)(C(F)(F)F)C2=C(CC(C)(C)CC2=O)N1Cc1ccco1 | -0.165
6 | C/C(CC(O)c1ccc2ccccc2n1)=N/O (centres undefined) | active: 5.27
7 | O=c1[nH]n(Cc2ccccc2)c(=O)c2ccccc12 | -0.204
8 | CN1C(=S)SC(N(O)C(=O)Nc2ccccc2)C1(C)C (centres undefined) | 0.201
9 | O=C(Nc1ccc(S(=O)(=O)N2CCOCC2)cc1)c1ccc(CN2CCc3ccccc3C2)cc1 | 1.33
10 | CCOC(=O)N1CCN(C(=O)N2CCOCC2)CC1 | 0.275
11 | CC(=O)NC(c1cccs1)c1cc([N+](=O)[O-])c2cccnc2c1O (centres undefined) | -1.44
12 | COc1cccc(C(=O)NCC(=O)OCC(=O)Nc2cc(OC)c([N+](=O)[O-])cc2C)c1 | -0.124
13 | Cc1cc(C)n(-c2ccc(C(=O)Nc3ccccn3)cc2)n1 | -0.653
14 | Cc1cc(NC(=O)c2cnccn2)no1 | -0.0463
15 | Cc1ccc(N2C(=O)CSCC2=O)cc1 | 0.0594
16 | CCOC(=O)Nc1ccc(OC)cc1S(=O)(=O)N1CCCCC1 | 0.612
17 | CCOC(=O)c1c(-c2ccc(C)o2)csc1NC(=S)NC(=O)N(C)C | active: 13.6
18 | COc1ccc(OC)c2[nH]c(=O)c(CCNC(=O)c3ccc(S(=O)(=O)N4CCCC4)cc3)cc12 | 0.244
19 | CC(=O)N1CCc2cc(S(=O)(=O)CCC(=O)N3CCN(c4ccccn4)CC3)ccc21 | -0.124
20 | Cc1ccc(S(=O)(=O)Nc2ccc(Cl)cc2C(=O)c2ccccc2)cc1 | -0.00219
21 | Cc1ccccc1C(=O)N1CCC(C(=O)Nc2ccc3c(c2)OCO3)CC1 | 0.00741
22 | CC#CCCCC(=O)Nc1ccc(C(=O)O)cc1 | 0.878

Row | SMILES | z-score
23 | O=C(Nc1sc2c(c1C(=O)O)CCC2)c1ccco1 | 0.028
24 | CCOC(=O)C1=C(C)NC(C)=C(C(=O)OCC)C1C(=O)OCC(=O)NC(C)C | 0.154
25 | O=C(Nc1ccc(Br)cc1)c1cnccn1 | 0.158
26 | O=C(c1cccc(F)c1)N1CCN(c2ccc([N+](=O)[O-])c(N3CCCCC3)c2)CC1 | -0.439
27 | CCOc1ncccc1C(=O)N(C)CC(=O)Nc1ccccc1SC | -0.119
28 | COCCCn1c(=N)c(C(=O)NCC2CCCO2)cc2c(=O)n3cccc(C)c3nc21 (centres undefined) | -0.218
29 | CC(C)CNC(=O)CC(=O)N/N=C/c1ccc(Br)cc1 | -0.0806
30 | COc1cccc(OC)c1NC(=O)C1CCCN1C(=O)NCc1ccccc1 (centres undefined) | -0.253
31 | O=C(CN1CCC(n2nnc3cc(C(F)(F)F)ccc32)CC1)N1CCc2ccccc21 | -0.724
32 | CCCc1nc2cc(CC(=O)OC)ccc2o1 | 0.0788
33 | CC1OC23CCCCC2C(C#N)(C(=N)O3)C1(C#N)C#N (centres undefined) | 1.17
34 | CC(=O)N1CCN(c2ccccc2NC(=O)COc2cc(C)ccc2C(C)C)CC1 | -1.18
35 | Cc1cc(C)c(N=Cc2c(O)n(-c3nccs3)c(=O)c3ccccc23)c(C)c1 | -0.767
36 | CCCCOc1ccc(CSc2ncn[nH]2)cc1 | 0.244
37 | O=C(N/N=C1\CCCc2c1[nH]c1ccc([N+](=O)[O-])cc21)c1ccncc1 | -0.000819
38 | COc1ccc(/C=N/NC(=O)CN(C2=NS(=O)(=O)c3ccccc32)c2ccccc2)cc1OC | -0.34
39 | N/C(=N\OC(=O)c1ccco1)c1ccccc1 | 1.55
40 | Cc1ccc(C(=O)O)cc1S(=O)(=O)N1CCOCC1 | -0.267
41 | COCC(=O)N(C)c1nnc(-c2cnc(C)cn2)s1 | 1.04
42 | O=C(c1ccc(CS(=O)(=O)c2ccccc2)o1)N1CCOCC1 | -0.0612
43 | Cc1sc2ncnc(SCC(=O)c3ccc4c(c3)OCCO4)c2c1-c1ccccc1 | 0.289
44 | Cc1cc(C)cc(NS(=O)(=O)c2ccc(NC(=S)Nc3ccccc3)cc2)c1 | 9.02e-05

Row | SMILES | z-score
45 | CCOC(=O)N1CCN(C(=O)CN(Cc2ccccc2)S(C)(=O)=O)CC1 | -0.183
46 | CC1(C)CC(=O)C2=C(C1)OC(c1ccc(O)cc1)C(C#N)=C2N (centres undefined) | -1.2
47 | Cc1cc(C)nc(Nc2ncc(O)n2-c2ccccc2)n1 | -0.435
48 | C=C(C)CNC(=S)N/N=C/c1ccc(N2CCOCC2)cc1 | 0.134
49 | O=C(NN=C1CCCCCCCCCCC1)c1ccccc1F | 0.015
50 | CCC1(C(=O)OC)NC(c2ccco2)C2C(=O)N(c3ccccc3)C(=O)C21 (centres undefined) | -0.0661
51 | COc1ccc(OC)c(NC(=O)CSc2nc3ccccc3cc2Cc2ccccc2)c1 | 0.0675
52 | CCCCNC(=O)NCC(=O)Nc1ccc(F)c(F)c1 | 1.15
53 | O=C1CCCc2c1nn(-c1ccccc1)[n+]2[O-] | 0.353
54 | COc1ccc(C2C(C#N)=C(C)NC3=C2C(=O)CC(C)(C)C3)c(OC)c1 (centres undefined) | -0.368
55 | Cc1[nH][nH]c(=O)c1C(c1ccc(O)c([N+](=O)[O-])c1)c1c(C)[nH][nH]c1=O | -0.177
56 | Cc1ccc(S(=O)(=O)NCC(=O)N(CC(=O)NCC2CCCO2)C2CCCC2)cc1 (centres undefined) | 0.179
57 | CSCCC(NC(=O)c1ccccc1)c1nc(-c2ccccc2)no1 (centres undefined) | -0.416
58 | COCCn1cnnc1SCC(=O)Nc1cccc(S(=O)(=O)N2CCCCCC2)c1 | -0.541
59 | Cc1ccc(N(CC(=O)NCCSCc2ccco2)S(=O)(=O)c2ccc(C)cc2)cc1 | -0.457
60 | COc1ccc(C(=O)CSc2cc(C)nc(SCC(=O)c3ccc(C)cc3)n2)cc1 | -0.124
61 | CC1=C(C(=O)OCC2CCCO2)C(c2ccccc2Cl)NC(=O)N1 (centres undefined) | -0.105
62 | CCCc1cc(=O)n2[nH]c(NCc3cccs3)nc2n1 | -0.866
63 | O=C(N/N=C/c1c[nH]c2ccccc12)c1ccn(Cc2ccc(Cl)cc2)n1 | -0.152
64 | Cc1ccc(S(=O)(=O)Nc2nc3n(n2)C(c2ccc(Cl)cc2)CC(=O)N3)cc1 (centres undefined) | -0.0522
65 | CN1CCN(/C=N/c2c(C#N)cnn2C)CC1 | 0.146
66 | CCSc1nc(N2CCCCC2)c2c(c1C#N)CCCC2 | -0.0717

Row | SMILES | z-score
67 | FC(F)(F)c1ccc(Cl)c(N/N=C/c2ccc(N3CCOCC3)s2)c1 | -0.185
68 | CN(C)CCCN(C(=O)c1ccc2c(c1)CCCC2)c1nc2ccc(Cl)cc2s1 | -0.225
69 | O=C(CCC(=O)Nc1ccccc1Cl)N/N=C1\CCCc2ccccc21 | -0.0173
70 | CCOC(=O)Cc1csc(NC(=O)COc2ccccc2OCC)n1 | 1.64
71 | Cc1cc(Nc2ccc3c(c2)OCCO3)n2ncnc2n1 | 0.494
72 | CCOC(=O)C1[C@H]2C(=O)N(C(C)c3ccc(OC)cc3)C[C@]23C=C[C@H]1O3 (some centres undefined) | 0.209
73 | CCc1cc2ccccc2nc1SCC(=O)Nc1cc(C)on1 | 0.395
74 | Cc1cc(S(=O)(=O)NC2CCCCC2)ccc1OCC(=O)NCc1ccccn1 | 1.29
75 | CCC1CCc2c(sc(NC(=O)c3ccco3)c2C(N)=O)C1 (centres undefined) | 0.0395
76 | CN1CCN(c2ccccc2NC(=O)COc2ccccc2)CC1 | -0.109
77 | CCc1c(C)nc2ncnn2c1N1CCCC(C(=O)Nc2cc(F)ccc2C)C1 (centres undefined) | 0.411
78 | Cc1nc2cc(C(=O)OCC(=O)Nc3cccc(Cl)c3)ccc2n1-c1ccccc1 | 2.18
79 | CCCCNC(=O)Cn1cnc2c(cnn2-c2ccc(C)c(C)c2)c1=O | -1.17
80 | Cc1ccccc1C(=O)c1c[nH]c(C(=O)NCc2ccco2)c1 | -0.18
81 | CC(=O)c1cccc(NC(=O)c2csc(-n3nc(C)cc3C(F)(F)F)n2)c1 | 0.0985
82 | CC(=O)c1cccc(NC(=O)NCc2ccco2)c1 | 0.286
83 | Cc1nnc(SCc2cccc3ccccc23)n(N)c1=O | 0.226
84 | O=C(c1ccc2c(c1)C(=O)N(Cc1ccco1)C2O)N1CCOCC1 (centres undefined) | -0.691
85 | Cc1ccc(CSc2nnc(CS(=O)Cc3ccc(Cl)cc3Cl)n2C)cc1 (centres undefined) | -0.571
86 | O=C(O)C1C2C=CC(O2)C1C(=O)NCc1ccccc1Br (centres undefined) | 0.381
87 | O=C(OCCN=C1NS(=O)(=O)c2ccccc21)c1ccccc1 | -0.108
88 | CCOC(=O)c1c(CC(C)C)csc1NC(=O)CCl | -0.191

Row | SMILES | z-score
89 | O=C(Cc1coc2cc3c(cc12)CCC3)NCC1(N2CCCCC2)CCCCC1 | -0.67
90 | COc1ccc(/C=N/NC(=S)Nc2ccccc2)cc1COc1ccccc1F | -0.0868
91 | COc1ccc(C(=O)N2CCN(C(=O)c3ccncc3)CC2)cc1 | 0.0368
92 | CC(=O)Oc1ccc2oc(=O)c3c(c2c1)CCCN3C(=O)CN1CCN(c2ncccn2)CC1 | -0.26
93 | Cc1cc2n(n1)C(c1ccco1)Nc1ccccc1-2 (centres undefined) | -0.00682
94 | Cc1cc(C(=O)COC(=O)CC2Sc3ccccc3NC2=O)c(C)n1-c1ccccc1 (centres undefined) | -0.175
95 | O=C(Nc1ccc2[nH]c3c(c2c1)CCCC3)c1ccco1 | -0.169
96 | CCc1ccc(C(C(=O)NC2CCCCC2)N(C(=O)CNC(=O)c2ccco2)c2cccnc2)cc1 (centres undefined) | -0.0971
97 | Cc1ccc(-c2nnc(SCC(=O)NC3CCCc4ccccc43)n2N)cc1 (centres undefined) | -0.297
98 | COc1ccc(S(=O)(=O)N(CC(=O)N/N=C/c2cccs2)c2ccc(C)cc2)cc1OC | -0.295
99 | Cc1ccc(C(=O)O/N=C(\N)c2ccc(Br)cc2)cc1 | 0.141
100 | O=C(C/C=N/OCc1c(Cl)cccc1Cl)c1cnc(-c2ccccc2)s1 | -0.12
101 | Cc1cc(Nc2cccc(Cl)n2)n(-c2ccccc2)n1 | -0.268
102 | CN1CCN(S(=O)(=O)c2ccc(NC(=S)NC(=O)C3CC3)cc2)CC1 | -0.268
103 | Cc1c(Br)c([N+](=O)[O-])nn1C(C)C(=O)Nc1nccs1 (centres undefined) | -0.0782
104 | O=C(NCc1ccc2c(c1)OCO2)c1cnc2n(c1=O)CCS2 | -0.0299
105 | CCc1ccc(C(=O)N2CCCC2)s1 | 0.0133
106 | O=S(=O)(NCCc1csc(-c2ccc(C(F)(F)F)cc2)n1)c1ccc2c(c1)OCCO2 | 0.811
107 | COc1ccc(Nc2nc(Cl)nc(NCCO)n2)cc1 | -0.0207
108 | Cc1cc(/C=C2\SC(=Nc3ccc(F)cc3)NC2=O)c(C)n1-c1ccc(S(N)(=O)=O)cc1 | -0.288
109 | CCOC(=O)CSc1nnc(CSc2nc3sc4c(c3c(=O)[nH]2)CCCC4)n1-c1ccccc1 | -0.635
